Tested on: Colletotrichum orbiculare
Details: in vivo

Compound | Test H control value
CCn1c(-c2c(F)cccc2F)c(-c2ocnc2I)cc(Cl)c1=O [Compound 74] | H (key: H shows the control value more than 50%; L shows the control value of 50% or less)
CCn1c(-c2c(F)cccc2F)c(-c2oc(I)nc2I)cc(Cl)c1=O [Compound 75] | L (key: H shows the control value more than 50%; L shows the control value of 50% or less)
CCn1c(-c2c(F)cc(F)cc2F)c(-n2nc(C)c(Br)c2C)ccc1=O [Compound 76] | L (key: H shows the control value more than 50%; L shows the control value of 50% or less)
CCn1c(-c2c(F)cc(F)cc2F)c(-n2cc(Br)cn2)cc(Br)c1=O [Compound 77] | H (key: H shows the control value more than 50%; L shows the control value of 50% or less)
CCn1c(-c2c(F)cc(OC)cc2F)c(-n2cc(Br)cn2)cc(Br)c1=O [Compound 78] | H (key: H shows the control value more than 50%; L shows the control value of 50% or less)
CCn1c(-c2c(F)cc(OC)cc2F)c(-c2cccnc2Cl)ccc1=O [Compound 79] | H (key: H shows the control value more than 50%; L shows the control value of 50% or less)
CCn1c(-c2c(F)cc(OC)cc2F)c(-c2cccnc2Cl)cc(Cl)c1=O [Compound 80] | H (key: H shows the control value more than 50%; L shows the control value of 50% or less)
CCn1c(-c2c(F)cc(OC)cc2F)c(-c2cccnc2Cl)cc(Br)c1=O [Compound 81] | H (key: H shows the control value more than 50%; L shows the control value of 50% or less)
CCn1c(-c2c(F)cc(F)cc2F)c(-n2ncc(C)c2Cl)ccc1=O [Compound 82] | H (key: H shows the control value more than 50%; L shows the control value of 50% or less)
CCn1c(-c2c(F)cc(F)cc2F)c(-n2ncc(C)c2Cl)cc(Cl)c1=O [Compound 83] | H (key: H shows the control value more than 50%; L shows the control value of 50% or less)
CCn1c(-c2c(F)cc(F)cc2F)c(-n2cccn2)cc(Cl)c1=O [Compound 84] | H (key: H shows the control value more than 50%; L shows the control value of 50% or less)
CCn1c(-c2c(F)cc(F)cc2F)c(-n2cc(C)cn2)cc(Cl)c1=O [Compound 85] | H (key: H shows the control value more than 50%; L shows the control value of 50% or less)
CCn1c(-c2c(F)cc(F)cc2F)c(-n2cc(C)cn2)cc(C)c1=O [Compound 86] | H (key: H shows the control value more than 50%; L shows the control value of 50% or less)
CCn1c(-c2c(F)cccc2F)c(-c2cnc(Cl)o2)cc(Cl)c1=O [Compound 87] | L (key: H shows the control value more than 50%; L shows the control value of 50% or less)
CCn1c(-c2c(F)cc(F)cc2F)c(-c2cnco2)cc(Br)c1=O [Compound 89] | H (key: H shows the control value more than 50%; L shows the control value of 50% or less)
CCn1c(-c2c(F)cc(OC)cc2F)c(-c2cnco2)cc(Br)c1=O [Compound 90] | H (key: H shows the control value more than 50%; L shows the control value of 50% or less)
CCn1c(-c2c(F)cccc2F)c(-c2ocnc2OC)cc(Cl)c1=O [Compound 91] | L (key: H shows the control value more than 50%; L shows the control value of 50% or less)
CCn1c(-c2c(F)cccc2F)c(-c2cnc(I)o2)cc(Cl)c1=O [Compound 92] | L (key: H shows the control value more than 50%; L shows the control value of 50% or less)
CCn1c(-c2c(F)cc(F)cc2F)c(-n2nc(C)cc2C)ccc1=O [Compound 93] | H (key: H shows the control value more than 50%; L shows the control value of 50% or less)
CCn1c(-c2c(F)cc(OC)cc2F)c(-n2nc(C)cc2C)ccc1=O [Compound 94] | H (key: H shows the control value more than 50%; L shows the control value of 50% or less)
CCn1c(-c2c(F)cc(F)cc2F)c(-n2nc(C)c(Cl)c2C)ccc1=O [Compound 95] | H (key: H shows the control value more than 50%; L shows the control value of 50% or less)
CCn1c(-c2c(F)cc(F)cc2F)c(-c2oc(Br)nc2Br)cc(Br)c1=O [Compound 96] | L (key: H shows the control value more than 50%; L shows the control value of 50% or less)
CCn1c(-c2c(F)cc(F)cc2F)c(-c2ocnc2Br)cc(Br)c1=O [Compound 97] | H (key: H shows the control value more than 50%; L shows the control value of 50% or less)
Cn1c(-c2c(F)cc(F)cc2F)c(-c2cccnc2Cl)ccc1=O [Compound 98] | H (key: H shows the control value more than 50%; L shows the control value of 50% or less)

Compound | Test H control value
Cn1c(-c2c(F)cccc2F)c(-c2cccnc2Cl)ccc1=O [Compound 99] | H (key: H shows the control value more than 50%; L shows the control value of 50% or less)
Cn1c(-c2c(F)cc(F)cc2F)c(-c2cccnc2Cl)cc(Cl)c1=O [Compound 100] | H (key: H shows the control value more than 50%; L shows the control value of 50% or less)
CCn1c(-c2c(F)cc(F)cc2F)c(-n2cc(C)cn2)cc(Br)c1=O [Compound 101] | H (key: H shows the control value more than 50%; L shows the control value of 50% or less)
CCn1c(-c2c(F)cc(OC)cc2F)c(-c2oc(Br)nc2Br)cc(Br)c1=O [Compound 102] | H (key: H shows the control value more than 50%; L shows the control value of 50% or less)
CCn1c(-c2c(F)cc(OC)cc2F)c(-c2ocnc2Br)cc(Br)c1=O [Compound 103] | H (key: H shows the control value more than 50%; L shows the control value of 50% or less)
Cn1c(-c2c(F)cc(F)cc2F)c(-c2cccnc2Cl)cc(Br)c1=O [Compound 104] | H (key: H shows the control value more than 50%; L shows the control value of 50% or less)
Cn1c(-c2c(F)cccc2F)c(-c2cccnc2Cl)cc(Cl)c1=O [Compound 105] | H (key: H shows the control value more than 50%; L shows the control value of 50% or less)
Cn1c(-c2c(F)cccc2F)c(-c2cccnc2Cl)cc(Br)c1=O [Compound 106] | H (key: H shows the control value more than 50%; L shows the control value of 50% or less)
CCn1c(-c2c(F)cc(F)cc2F)c(-c2ocnc2Cl)cc(Br)c1=O [Compound 107] | H (key: H shows the control value more than 50%; L shows the control value of 50% or less)
CCn1c(-c2c(F)cc(F)cc2F)c(-n2cc(Br)c(C)n2)ccc1=O [Compound 108] | H (key: H shows the control value more than 50%; L shows the control value of 50% or less)
CCn1c(-c2c(F)cc(F)cc2F)c(-n2cc(C)c(C)n2)ccc1=O [Compound 109] | H (key: H shows the control value more than 50%; L shows the control value of 50% or less)
O=c1c(Cl)cc(-n2cc(Cl)cn2)c(-c2c(F)cc(F)cc2F)n1CC(F)F [Compound 110] | L (key: H shows the control value more than 50%; L shows the control value of 50% or less)
COc1cc(F)c(-c2c(-n3cc(Cl)cn3)cc(Cl)c(=O)n2CC(F)F)c(F)c1 [Compound 111] | H (key: H shows the control value more than 50%; L shows the control value of 50% or less)
CCn1c(-c2c(F)cc(F)cc2F)c(-c2ocnc2Br)cc(Cl)c1=O [Compound 113] | H (key: H shows the control value more than 50%; L shows the control value of 50% or less)
CCn1c(-c2c(F)cc(OC)cc2F)c(-c2oc(Cl)nc2Cl)cc(Cl)c1=O [Compound 114] | H (key: H shows the control value more than 50%; L shows the control value of 50% or less)
CCn1c(-c2c(F)cc(OC)cc2F)c(-c2ocnc2Cl)cc(Cl)c1=O [Compound 115] | H (key: H shows the control value more than 50%; L shows the control value of 50% or less)
CCn1c(-c2c(F)cc(OC)cc2F)c(-c2oc(Br)nc2Br)cc(Cl)c1=O [Compound 116] | H (key: H shows the control value more than 50%; L shows the control value of 50% or less)
CCn1c(-c2c(F)cc(F)cc2F)c(-n2nc(C)c(Br)c2C)cc(Br)c1=O [Compound 117] | L (key: H shows the control value more than 50%; L shows the control value of 50% or less)
CCn1c(-c2c(F)cc(OC)cc2F)c(-c2ocnc2Br)cc(Cl)c1=O [Compound 118] | H (key: H shows the control value more than 50%; L shows the control value of 50% or less)
CCn1c(-c2c(F)cc(NC)cc2F)c(-c2cnco2)cc(Cl)c1=O [Compound 119] | L (key: H shows the control value more than 50%; L shows the control value of 50% or less)
CCn1c(-c2c(F)cc(F)cc2F)c(-c2ocnc2F)cc(Cl)c1=O [Compound 120] | H (key: H shows the control value more than 50%; L shows the control value of 50% or less)
O=c1c(Cl)cc(-n2cc(Cl)cn2)c(-c2c(F)cc(F)cc2F)n1CC(F)(F)F [Compound 121] | L (key: H shows the control value more than 50%; L shows the control value of 50% or less)
COc1cc(F)c(-c2c(-n3cc(Cl)cn3)cc(Cl)c(=O)n2CC(F)(F)F)c(F)c1 [Compound 122] | L (key: H shows the control value more than 50%; L shows the control value of 50% or less)
CCn1c(-c2c(F)cc(F)cc2F)c(-n2cc(C=O)cn2)cc(Cl)c1=O [Compound 123] | L (key: H shows the control value more than 50%; L shows the control value of 50% or less)
